# From PMC4336329 (PLoS ONE, 2015)
# Hit rate of the full screen: of about 310,000 compounds, about 14,000 (4.5%) showed an effect of 50% or more. The effect is printed as a negative number. The list shows a part of the results.
# Target: human ether-à-go-go-related gene (hERG) potassium channel (human, UniProt Q12809)
# Experiment: primary screen, population patch clamp on CHO cells stably expressing hERG
# 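Note: peak tail current of the secondary pulse compared with the same well before compound.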
# Chain of human ether-à-go-go-related gene (hERG) potassium channel (Q12809 whole entry, looked up): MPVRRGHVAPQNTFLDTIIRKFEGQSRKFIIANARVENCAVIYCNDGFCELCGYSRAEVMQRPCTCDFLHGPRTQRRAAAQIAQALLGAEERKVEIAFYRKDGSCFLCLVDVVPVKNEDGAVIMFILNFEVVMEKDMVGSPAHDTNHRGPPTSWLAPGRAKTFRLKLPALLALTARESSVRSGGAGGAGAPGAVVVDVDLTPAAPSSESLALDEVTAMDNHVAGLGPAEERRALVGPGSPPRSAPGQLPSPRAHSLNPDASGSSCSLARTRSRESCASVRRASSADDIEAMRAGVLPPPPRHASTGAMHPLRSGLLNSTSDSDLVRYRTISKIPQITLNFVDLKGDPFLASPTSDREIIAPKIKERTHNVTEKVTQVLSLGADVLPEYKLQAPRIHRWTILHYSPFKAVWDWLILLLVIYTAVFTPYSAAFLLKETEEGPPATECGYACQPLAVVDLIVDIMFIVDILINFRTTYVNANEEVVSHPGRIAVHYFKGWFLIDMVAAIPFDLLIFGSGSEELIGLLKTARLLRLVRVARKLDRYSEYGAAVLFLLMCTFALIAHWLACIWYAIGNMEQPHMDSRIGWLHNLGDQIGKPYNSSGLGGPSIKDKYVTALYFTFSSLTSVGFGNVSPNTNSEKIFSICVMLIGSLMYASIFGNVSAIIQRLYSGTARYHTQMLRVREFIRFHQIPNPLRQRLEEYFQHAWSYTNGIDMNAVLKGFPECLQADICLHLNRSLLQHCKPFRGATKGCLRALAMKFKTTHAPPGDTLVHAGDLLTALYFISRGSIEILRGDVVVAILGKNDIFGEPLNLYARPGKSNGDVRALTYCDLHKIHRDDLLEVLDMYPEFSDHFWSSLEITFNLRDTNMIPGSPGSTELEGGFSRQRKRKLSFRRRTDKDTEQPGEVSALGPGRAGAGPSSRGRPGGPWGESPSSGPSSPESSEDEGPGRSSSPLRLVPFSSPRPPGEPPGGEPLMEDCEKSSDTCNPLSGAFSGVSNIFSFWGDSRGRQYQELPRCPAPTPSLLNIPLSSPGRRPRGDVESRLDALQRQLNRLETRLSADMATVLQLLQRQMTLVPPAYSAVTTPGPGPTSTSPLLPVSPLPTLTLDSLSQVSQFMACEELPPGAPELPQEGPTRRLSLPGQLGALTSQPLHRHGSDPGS
row,Compound,"hERG current change (%, negative = inhibition) at 10uM [%]"
1,COc1nc(-c2ccccc2)nc(-c2ccccc2)c1C,9.92
2,CCN1CCCC1CNCC(O)COc1ccc(C(C)(C)C)cc1C.O=C(O)C(=O)O (stereo not drawn),-54.4
3,CCCCCOP(=O)(OCCCCC)C1(NS(=O)(=O)c2ccccc2)C=CC(=O)c2ccccc21 (stereo not drawn),9.76
4,Cc1cc(Oc2ccc(Cl)cc2)nc(SCC(=O)c2ccccc2)n1,3.88
5,O=C(COc1ccccc1)N1CCN(S(=O)(=O)c2ccc(Cl)cc2)CC1,-2.27
6,COc1cccc(-n2nnc3c(=O)n(Cc4ccccc4Cl)cnc32)c1,-5.5
7,COc1ccc(CNC(=O)C(=O)NCc2cccnc2)cc1,-6.16
8,O=C(NCc1cccc(F)c1)C1CCC(=O)N(CC2CCCCC2)C1 (stereo not drawn),-9.08
9,Cc1ccc(/C=N/NC(=O)c2sccc2OCc2ccc(F)cc2)cc1,6.54
10,CC1=NN(C(=O)Cc2ccccc2)C(O)(c2ccccc2)C1 (stereo not drawn),19.1
11,Cc1ccc(S(=O)(=O)NCCCCCC(=O)Nc2ccccn2)cc1,-11
12,COc1ccc(C(=O)C[n+]2cn(C(F)F)c3ccccc32)c(F)c1.[Br-],-4.45
13,Cc1ccc(-n2c(N)cc(=O)nc2SCC(=O)NC2CCCCC2)cc1C,8.7
14,CC(C)(C)c1ccc(C(=O)O/N=C(\N)c2ccccn2)cc1,21.1
15,O=C(NCc1cccc(Cl)c1)c1ccco1,-1.61
16,O=C(Nc1nc(-c2ccccc2)cs1)C1c2ccccc2Oc2ccccc21,5.83
17,COC/C=C/C1=CC2=CC(=O)C(C)(OC(=O)c3cnc4ccccc4n3)C(=O)C2=CN1CC1CC1 (stereo not drawn),11.5
18,O=C1CCC(=O)N(c2ccccc2)N1,21.9
19,NS(=O)(=O)c1ccc(CNC(=O)c2ccc(Cl)c(S(=O)(=O)NCc3ccccc3)c2)cc1,6.57
20,CCCc1cc(C(=O)OC)c(NC(=O)OCC)s1,1.09
21,C=CCNc1nc(C(=O)OCC(=O)N(Cc2ccccc2)C(C)C)cs1,-30.8
22,Cc1sc(-c2ccccn2)nc1OC(=O)c1ccc(F)cc1F,23.3
23,Cc1cc(C2=NNC(=Nc3ccc(S(=O)(=O)N4CCOCC4)cc3)SC2)c(C)n1C,-1.43

row,Compound,"hERG current change (%, negative = inhibition) at 10uM [%]"
1,COc1ccc(/C=C(/NC(=O)/C=C/c2ccccc2)C(=O)N2CCOCC2)cc1,-71.2
2,Cc1ccccc1CN(c1ccc(C(=O)NCc2cccnc2)cc1)S(C)(=O)=O,-0.823
3,Nc1nnc(SCc2c(F)cccc2Cl)s1,-0.0422
4,COc1ccccc1C(=O)Nc1ccnn1C1CCN(C(=O)C2CCOC2)CC1 (stereo not drawn),-35.9
5,Cc1cc(C)c2nc(N3CCC(C(=O)N4CCN(C(=O)c5ccco5)CC4)CC3)sc2c1,-77.1
6,O=C(C[n+]1ccccc1)N/N=C/c1c(F)cccc1Cl.[Cl-],24.3
7,CC(=O)Nc1ccc(C(=O)NN2C(=O)c3ccccc3C2=O)cc1,7.29
8,Nc1nc(CSc2nnnn2-c2ccccc2)nc(N2CCCc3ccccc32)n1,-0.4
9,O=C(COC(=O)c1ccc(S(=O)(=O)N2CCOCC2)cc1)NC1CCCC1,-1.06
10,Cc1cc(C(=O)Oc2ccccc2C(=O)O)c(C)o1,10.5
11,COc1cccc(NC(=O)C2CCN(C(=O)[C@@H]3Cc4ccccc4CN3C(=O)OC(C)(C)C)CC2)c1,0.248
12,Cc1ccc(CCNS(=O)(=O)c2cnc[nH]2)cc1,2.46
13,CC(C)c1ccc(O)c(CN2CCN(c3ccccc3)CC2)c1,8.49
14,O=C1C2C3C=CC(C4CC34)C2C(=O)N1CCc1ccccc1 (stereo not drawn),3.23
15,COc1cc2cc(C(=O)N3CCc4ccccc4C3)[nH]c2cc1OC,17.3
16,CC1CC2(CCCCC2)Nc2ccc3ccccc3c21.Cl (stereo not drawn),1.27
17,COc1cc(OC)cc(C(=O)Nc2cc(C)on2)c1,18.6
18,CSCCC(NC(=O)c1ccco1)C(=O)NCc1ccc(F)cc1 (stereo not drawn),-4.16
19,CCOC(=O)c1ccc(Nc2cc(C)nc(-c3ccccc3O)n2)cc1,12.2
20,CC(C)C(OC(=O)/C=C/c1ccc2c(c1)OCO2)C(=O)NC(N)=O (stereo not drawn),10.9
21,CCOc1ccc(/C=C(/NC(=O)c2ccc(Cl)cc2)C(=O)O)cc1OCC,-17.3
22,Cc1ccccc1NC(=O)NCCCN1CCN(C2CCCCC2)CC1,-9.26
